Results from PubChem BioAssay AID588453 (National Center for Advancing Translational Sciences (NCATS), 2011).
Several values for one entry are separate records, joined by “and”; a condition that tells them apart may be missing. Equal values may be shown once. Hit rate of the full screen: of about 390,000 compounds, about 4,000 (1%) were called active. The inconclusive results got no clear call from the source; some entries with a clear call stand among them for comparison. The call rests on the fitted dose curve; in most records, active means well fitted inhibition curve with a large enough effect; inconclusive means small, poorly fitted or top-dose-only effect; inactive means no such curve, though single readings can be large or run the other way. Potencies beside an inconclusive call are fits to weak or partial responses and may not hold up. The source holds several records for some structures; these can differ, active in one and inactive in another.

The compounds below were run against Thioredoxin reductase 1, cytoplasmic (Rattus norvegicus) (UniProt O89049) (assay: qHTS Assay for Inhibitors of Mammalian Selenoprotein Thioredoxin Reductase 1 (TrxR1): qHTS). Details: recombinant rTrxR1, NADPH fluorescence consumption, selenite substrate; series mostly up to 114 µM; activity change, negative = inhibition: at the top concentration.
Procedure, shortened: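 Rat TrxR1 (90 nM in the dispensed reagent) was pre-reduced with 400 uM NADPH for 5 min at room temperature, then incubated with compound for 15 min. After 400 uM selenite was added, NADPH fluorescence (Ex 340/Em 450 nm) was followed for 8 min.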
Further: nearly all actives have a fitted effect of over 65% in size.
On the % scale 0 is the no-effect control and ±100 the full control effect; potency means the concentration at half of the fitted maximal effect; tags describe the fitted curve by direction and shape.

Chain of UniProt O89049 (O89049 whole entry, looked up): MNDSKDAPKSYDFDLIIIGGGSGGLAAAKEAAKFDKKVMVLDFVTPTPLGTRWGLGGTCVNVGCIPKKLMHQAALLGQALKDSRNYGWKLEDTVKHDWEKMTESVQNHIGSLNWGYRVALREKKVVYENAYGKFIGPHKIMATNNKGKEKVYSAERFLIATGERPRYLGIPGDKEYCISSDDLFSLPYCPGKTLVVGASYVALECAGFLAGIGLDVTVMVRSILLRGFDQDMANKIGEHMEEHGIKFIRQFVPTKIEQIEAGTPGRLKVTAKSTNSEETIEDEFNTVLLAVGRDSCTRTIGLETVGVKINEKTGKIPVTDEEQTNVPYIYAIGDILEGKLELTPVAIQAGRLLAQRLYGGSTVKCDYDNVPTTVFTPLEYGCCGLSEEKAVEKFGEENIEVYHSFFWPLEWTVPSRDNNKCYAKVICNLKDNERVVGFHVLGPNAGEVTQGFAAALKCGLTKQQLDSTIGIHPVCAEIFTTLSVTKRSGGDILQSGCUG

| Compound | Potency | activity change, negative = inhibition |
| --- | --- | --- |
| O=[N+]([O-])c1ccc(OC/C=C2\Oc3ccc([N+](=O)[O-])cc3C2N2CCOCC2)cc1 (centres undefined) | inconclusive: 35.5 µM [inhibitor, partial curve, poor fit] |  |
| CCOc1ccc2nc(NCCNC(=O)C3CC3)c(C)cc2c1 | inconclusive: 39.8 µM [inhibitor, single point] |  |
| O=C(NC1CCCC1)c1sc(=S)n2c1[nH]c(=O)c1ccccc12 |  | inactive: 1.63% |
| NC1(C(=O)O)CCc2cc(C(=O)O)ccc21 (centres undefined) | inconclusive: 31.6 µM [inhibitor, partial curve] and inconclusive: 16.8 µM [inhibitor, partial curve] |  |
| CCOC(=O)c1cnc2ccc(Br)cc2c1NCCCN1CCOCC1 | inconclusive: 56.2 µM [inhibitor, partial curve, poor fit] |  |
| Cc1cccc(C(=O)NCN2CCN(c3ccccc3C#N)CC2)c1 | inconclusive: 29.9 µM [inhibitor, single point] and inconclusive: 37.7 µM [inhibitor, partial curve, poor fit] |  |
| COC(=O)c1cc(COc2ccc3oc(C)c(C(=O)OC)c3c2)c(C)o1 |  | inactive: 1.62% |
| COc1cccc(NC(=O)c2cc(-c3ccc(C)o3)nc3ccccc23)c1 | inconclusive: 50.1 µM [inhibitor, partial curve] |  |
| CCC(NC(=O)OC(C)(C)C)C(=O)Oc1ccc2c3c(c(=O)oc2c1)CCC3 (centres undefined) | inconclusive: 70.8 µM [inhibitor, partial curve, poor fit] |  |
| CCc1ccccc1OCC(=O)Nc1ccc(S(=O)(=O)Nc2nc(C)cc(C)n2)cc1 |  | inactive: 6.83% |
| CCCN(CC1CC1)C(=O)CSc1nnc(-c2cc(-c3cccs3)nc3ccccc23)o1 |  | inactive: 38% |
| O=C(CCc1ccccc1)NNC(=S)NC(=O)c1ccccc1 | inconclusive: 10 µM [inhibitor, partial curve, poor fit] |  |
| N.N.O=C(O)C1(C(=O)O)CCC1.[Pt] | inconclusive: 0.891 µM [inhibitor, full curve] |  |
| COc1ccccc1N1C(=O)Cc2ccccc2C1=O |  | inactive: -15.5% |
| CCOC(=O)/C=C/C(=O)Nc1ccc(S(=O)(=O)Nc2c(C)cc(C)cc2C)cc1 |  | inactive: -5.12% |
| O=C(/C=C/c1ccc(F)cc1)c1ccccc1Br | inconclusive: 50.1 µM [inhibitor, partial curve] |  |
| O=c1[nH]c2ccsc2c(=O)n1CCO |  | inactive: 33.5% |
| ClCc1ncc(-c2ccc(Cl)cc2)o1 | inconclusive: 12.6 µM [inhibitor, partial curve] |  |
| CC1(C)O[C@@H]2[C@H](O1)[C@@H](CO)O[C@H]2n1cnc2c(N)ncnc21 |  | inactive: 20.5% |
| Cc1cccc(NC(=O)c2ccc(-n3cnc4cccnc43)cc2)c1C |  | inactive: 22.1% |
| COc1cccc(/C=C2\SC(=S)N(C(Cc3ccccc3)C(=O)O)C2=O)c1 (centres undefined) |  | inactive: 0.22% |
| O=C1/C(=C\c2ccccc2)CCC/C1=C/c1ccccc1 | inconclusive: 56.2 µM [inhibitor, partial curve] |  |

| Compound | Potency | activity change, negative = inhibition |
| --- | --- | --- |
| Cc1c(C)c2ccc(OC(C)C(=O)NCc3ccccn3)cc2oc1=O (centres undefined) | inconclusive: 89.1 µM [inhibitor, single point] |  |
| Cc1ccc(/C=C/C(=O)NCc2ccc(S(N)(=O)=O)cc2)o1 | active: 15.8 µM |  |
| Cc1[nH][nH]c(=O)c1C(c1c(C)[nH][nH]c1=O)c1cn(Cc2ccc(F)cc2)c2ccccc12 | inconclusive: 79.4 µM [inhibitor, partial curve] |  |
| CCOC(=O)c1c(-c2ccc(OC)cc2)oc2ccc(OCc3ccccc3C)cc12 |  | inactive: 60.1% |
| Oc1ccc(-c2n[nH]c(=S)n2-c2ccc3c(c2)OCCO3)c(O)c1 | inconclusive: 20 µM [inhibitor, partial curve, poor fit] |  |
| Cc1ccc2nc(Cl)c(C3CC(c4ccco4)=NN3C(=O)CCCC(=O)O)cc2c1 (centres undefined) | inconclusive: 31.6 µM [inhibitor, full curve] |  |
| CCCCCCc1ccc(N2C[C@H](Cc3ccccc3)[C@@H](CC(=O)Nc3ccccc3)C2=O)cc1 | inconclusive: 31.6 µM [inhibitor, single point] |  |
| O=C(/C=C/c1ccccc1[N+](=O)[O-])c1ccccc1Br | inconclusive: 22.4 µM [inhibitor, partial curve] |  |
| O=CN/C=C/c1cc(O)ccc1O | inconclusive: 70.8 µM [inhibitor, single point] |  |
| CS(=O)(=O)N1N=C(c2ccco2)CC1c1ccco1 (centres undefined) | inconclusive: 39.8 µM [inhibitor, partial curve] |  |
| Cc1c(NC(=O)/C(C#N)=C\c2cccs2)c(=O)n(-c2ccccc2)n1C | inconclusive: 79.4 µM [inhibitor, single point] |  |
| Cc1nc(NC(=O)CCc2ccccc2)sc1C |  | inactive: 23.1% [at 57.1 µM] |
| CN1C(=O)/C(=C/C=C2/CCCN2C)N(C)C1=S | inconclusive: 50.1 µM [inhibitor, partial curve] |  |
| CCOc1ccc(C(c2c(O)nc(SC)n(C)c2=O)c2c(O)nc(SC)n(C)c2=O)cc1 | active: 8.91 µM |  |
| CC1(c2ccccc2)CC(C)(C)N2C(=O)/C(=C3\SC(=S)NC3=O)c3cccc1c32 (centres undefined) |  | inactive: -4.59% |
| CCOC(=O)C1CCN(Cc2ccccc2C(F)(F)F)CC1 |  | inactive: 1.26% |
| CCn1c(Cn2nnc(-c3ccccc3)n2)nnc1SCC(=O)Nc1ccc(N(C)C)cc1 | inconclusive: 39.8 µM [inhibitor, single point] |  |
| O=C1NC2c3c(I)sc(I)c3C(=O)C2O1 (centres undefined) | active: 2.51 µM |  |
| O=C(NCc1ccc(F)cc1)c1cc(-c2ccc(Cl)cc2)n[nH]1 | inconclusive: 89.1 µM [inhibitor, single point] |  |
| O=C(/C=C/c1ccco1)N/C(=C\c1ccccc1)C(=O)NCCc1nc2ccccc2[nH]1 | inconclusive: 28.2 µM [inhibitor, full curve] |  |
| Cc1ccc(NC(=S)NC(=O)c2ccc(F)cc2)cc1S(=O)(=O)Nc1ccccc1Cl | inconclusive: 3.55 µM [inhibitor, partial curve, poor fit] |  |
| CC(C)(C)NC(=O)C(c1ccncc1)N(Cc1ccc(F)cc1)C(=O)c1ccc(-c2ccccc2)[nH]1 (centres undefined) | inconclusive: 50.1 µM [inhibitor, partial curve] |  |
